Among all 150,000 compounds or so, about 540 (0.36%) showed an effect of 50% or more. Some of the results follow.

The test concerns Plasmodium falciparum. Kind of test: Primary screen in NF54 nanoGlo assay, in single point, at 2uM, 72h; a lower Z score goes with more inhibition. The conditions noted are these: timepoint 72 hour. The class given is functional, Erythrocyte.
Regarding `CC(=O)Nc1c(S(=O)(=O)c2ccc(C)cc2)c(C)c(C)n1CC(C)C`, the % Inhibition – broadly, the relative decrease from the control value, in per cent – is on record as -4% and the Z score is given as 0.55.

In the case of `CC(=O)N1CCc2cc(-c3ccc(C(=O)NCC[C@H](C)N4CCCC4)cc3)ccc21`, the “% Inhibition” value is on record as 42% and the Z score was -4.76.

Regarding `CC1=NS(=O)(=O)N(C)C=C1C(=O)OCCOc1ccccc1`, the “% Inhibition” value is -6% and the Z score came out at 1.11.

For the compound `CC(C)(C)Oc1ccccc1NCc1cnc(N2CCOCC2)nc1`, the “% Inhibition” value is on record as -19% and the Z score was found to be 2.73.

In the case of `FC(F)c1cc(NCCc2cc[nH]n2)n2ncnc2n1`, the “% Inhibition” value was -1% and the Z score is 0.19.

As for `CC[C@H](C)[C@@H]1NC(=O)N(C2CC(C)(c3ccccc3)C2)C1=O` (stereo partly specified), the “% Inhibition” value is on record as -17% and the Z score is 2.64.

Consider `COc1cccc(CNC(=O)[C@@H](C)C2CCN(C(=O)c3cc4ccccc4[nH]3)CC2)c1`, for which the “% Inhibition” value was 0% and the Z score is listed as 0.09.

For `CC(C)CCN1C[C@]23C=C[C@H](O2)C(C(=O)N2CCCN(C)CC2)C3C1=O` (stereo partly specified), the “% Inhibition” value is recorded as -3% and the Z score is 0.57.

On to `CCOc1ccc(NC(=O)c2c(NCc3sccc3C)sc3c2CCCCC3)cc1`, for which the “% Inhibition” value was -4% and the Z score was 0.71.

`O=S(=O)(Nc1ccc(Br)cn1)c1cccnc1`: the “% Inhibition” value came out at 8% and the Z score is reported as -0.89.

In the case of `Cc1cc(NC(=O)NCCN2CCO[C@@H](C)C2)cn2ccnc12`, the “% Inhibition” value is listed as -16% and the Z score is 2.08.

Regarding `C[C@H](NC(=O)NC1CCOCC12CCCC2)c1cncc(F)c1` (stereo partly specified), the “% Inhibition” value is -11% and the Z score is 2.15.

Take `CCc1c(C)nn(CC(=O)N2C[C@H](C3CC3)[C@@H](N(C)C)C2)c1C`: the “% Inhibition” value is listed as -11% and the Z score stood at 1.44.

For `COc1cccc(C)c1C(=O)N[C@@H]1COCC[C@@H]1Oc1ccccc1`, the “% Inhibition” value is recorded as -7% and the Z score is listed as 1.29.

In the case of `CNc1nc([C@H]2CCOC2)cc(N2CCN(c3ccccc3F)CC2)n1`, the “% Inhibition” value was -9% and the Z score was determined as 1.68.

Regarding `O=C1NC2(CCN(Cc3ccccc3C(F)(F)F)CC2)Nc2cccc(Cl)c21`, the “% Inhibition” value is -12% and the Z score is given as 1.52.

As for `CCN(Cc1ccc(Cn2cccn2)cc1)C[C@H](O)c1cccc(O)c1`, the “% Inhibition” value was -5% and the Z score stood at 0.75.

As for `CCCNC(=O)c1ccc(NC(=O)c2nnc(C)s2)cc1`, the “% Inhibition” value is -21% and the Z score turned out to be 2.45.

Take `Cc1cc(C(=O)Nc2nnc(-c3ccc(F)cc3F)o2)c(C)o1`: the “% Inhibition” value is listed as -8% and the Z score is given as 1.42.

On to `O=C(Nc1ccon1)c1ccc([C@@H]2CCCN2)s1`, for which the “% Inhibition” value was -6% and the Z score stood at 1.01.

Turning to `CC1(C)c2[nH]c3ccccc3c2C[C@H]2C(=O)N(CCN3CCOCC3)CC(=O)N21`, the “% Inhibition” value is on record as 2% and the Z score is -0.39.

For `O=S1(=O)CCN(c2nc3ccccc3o2)CC1`, the “% Inhibition” value turned out to be 5% and the Z score was -0.41.

Turning to `CN(c1ccn(C)n1)S(=O)(=O)CCCS(=O)(=O)N1CCCC1`, the “% Inhibition” value is reported as -3% and the Z score came out at 0.33.

On to `O=C1CC[C@@H]2CN(c3ncnc4[nH]cnc34)CC[C@@H]2N1CCc1ccccc1`, for which the “% Inhibition” value is listed as -5% and the Z score is given as 1.08.

Regarding `O=C(N[C@H]1CCOC[C@@H]1OCc1cscn1)c1cn[nH]c1`, the “% Inhibition” value is -5% and the Z score came out at 0.79.

Regarding `CCc1ccc(CN2CC[C@H]3CN(C(C)=O)C[C@@]3(CO)C2)o1`, the “% Inhibition” value is reported as 1% and the Z score is -0.22.

Take `CC(C)Cc1nc(C#N)c(NCCc2ccccc2)o1`: the “% Inhibition” value was -20% and the Z score is recorded as 2.82.

On to `COc1ccc2cc(C(=O)N3CCN(c4ccccn4)CC3)ccc2c1`, for which the “% Inhibition” value is given as -2% and the Z score is listed as 0.34.

Turning to `CCc1nc(CN2C(=O)COc3cc(S(=O)(=O)NC4CCC(C)CC4)c(Cl)cc32)no1` (stereo unspecified), the “% Inhibition” value is -10% and the Z score was found to be 1.14.

With `Cn1cnnc1CCC(=O)N1CCN(c2ccc(Cl)c(Cl)c2)CC1`, the “% Inhibition” value is recorded as -10% and the Z score turned out to be 1.99.

Regarding `CCc1nc(CNC(=O)NCc2cc(Br)cnc2OC)cs1`, the “% Inhibition” value is -5% and the Z score was found to be 0.51.

On to `CS(=O)(=O)N1CCO[C@@H](Cc2cccc3ccccc23)C1`, for which the “% Inhibition” value is on record as -9% and the Z score is 1.69.

For the compound `O=C(c1ccc(C(=O)N2CCCc3ccccc32)s1)N1CCCc2ccccc21`, the “% Inhibition” value is 21% and the Z score is listed as -2.34.

Take `Cc1cc(OCc2ccon2)c2ccccc2n1`: the “% Inhibition” value is on record as -6% and the Z score is given as 0.56.

On to `COc1ccc2c(c1)C1(CC1)CN(C(=O)NC[C@@]1(C)CCC(=O)N1)C2`, for which the “% Inhibition” value is 12% and the Z score is on record as -1.21.

`O=S(=O)(c1ccccc1)N1CC[C@@H]2CN(Cc3ccccc3)[C@@H]2C1`: the “% Inhibition” value is -11% and the Z score was 1.48.

As to `COc1ccccc1CNC(=O)C1=NN(c2ccc(C)cc2)c2ncccc2S1(=O)=O`, the “% Inhibition” value stood at 3% and the Z score is given as -0.37.

On to `Cc1noc(C)c1S(=O)(=O)Nc1cccc2c1CCCC2`, for which the “% Inhibition” value is reported as -14% and the Z score was determined as 1.61.

`COc1ccc(-c2cnn([C@@H](C)C(=O)Nc3c(C)cccc3C)c(=O)n2)cc1`: the “% Inhibition” value is on record as -3% and the Z score is given as 0.34.

On to `Cc1c(Cl)cccc1S(=O)(=O)N1CC(N2CCc3sccc3C2)C1`, for which the “% Inhibition” value is recorded as -16% and the Z score stood at 2.55.

In the case of `CC(=O)c1cn(Cc2ccco2)c(=O)[nH]c1=O`, the “% Inhibition” value is given as -9% and the Z score is recorded as 1.57.

On to `Cc1nn(C)c(C)c1CCC(=O)N(C)[C@@H](C)c1ccco1`, for which the “% Inhibition” value is recorded as -8% and the Z score turned out to be 0.99.

With `NCCn1cc(C(=O)NCc2cccnc2Oc2ccc(F)cc2F)nn1`, the “% Inhibition” value was -10% and the Z score turned out to be 1.58.

As to `CCC(=O)Nc1ccc2c(c1)cc(C(=O)Nc1ccccc1)n2Cc1ccccc1`, the “% Inhibition” value is on record as -5% and the Z score is reported as 0.61.

`Cc1[nH]c(-c2nnc(C3CCC3)o2)c(C)c1S(=O)(=O)N1CCCCCC1`: the “% Inhibition” value is -11% and the Z score is recorded as 1.41.

With `COCCn1cnnc1CNC(=O)c1cnc(C(C)C)nc1`, the “% Inhibition” value was determined as 6% and the Z score is -0.78.

For `O=C1OCCN1Cc1cc(F)ccc1C(F)(F)F`, the “% Inhibition” value is given as 2% and the Z score is on record as -0.25.

On to `CC(C)c1ccc(S(=O)(=O)Nc2cc(C(=O)O)ccc2N2CCC(N3CCCCC3)CC2)cc1`, for which the “% Inhibition” value was -16% and the Z score came out at 1.6.

Consider `Cc1cc(C)cc(NC(=O)CCc2ccc3[nH]c(C(C)C)nc3c2)c1`, for which the “% Inhibition” value is 4% and the Z score is recorded as -0.57.

For `Cc1ccccc1[C@H]1CCN(CCNc2nccc(-c3c(C)nn(C)c3C)n2)C1`, the “% Inhibition” value is -2% and the Z score is listed as 0.23.

`CCc1cc(C(=O)NCc2cccnc2)nc2cc(-c3ccccn3)nn12`: the “% Inhibition” value is recorded as 1% and the Z score is recorded as -0.11.

Take `CCN(CC(=O)Nc1ccc(C(C)C)cc1)[C@@H](C)CS(C)(=O)=O`: the “% Inhibition” value came out at 0% and the Z score is recorded as 0.06.

Regarding `COc1nc(C)cc(N(C)Cc2ncccn2)n1`, the “% Inhibition” value is recorded as -7% and the Z score came to 0.86.

`Cc1ccc(CNC(=O)Cn2cnc3c(-c4ccncc4)nsc3c2=O)cc1`: the “% Inhibition” value is on record as -9% and the Z score was 1.11.

As for `CC(C)(CN1CCOCC1)CN1CCc2[nH]cnc2[C@H]1c1cccc(C#N)c1`, the “% Inhibition” value was -1% and the Z score stood at 0.19.

Take `CC(NC(=O)N1CCCC(OC2CCC2)C1)c1ncc(Br)cn1` (stereo unspecified): the “% Inhibition” value is -9% and the Z score turned out to be 1.34.

With `CC1=NO[C@@](C)(CNC(=O)c2ccccc2Cl)C1`, the “% Inhibition” value is recorded as -9% and the Z score was 1.26.

For the compound `O=c1[nH]ccnc1N[C@H]1CCN(c2cccc(OC(F)(F)F)c2)C1`, the “% Inhibition” value amounted to 1% and the Z score is given as -0.1.

As for `CCOC(=O)C1(Cc2ccc(Cl)cc2)CCN([C@@H](C)Cc2ccc(O)c(OC)c2)CC1`, the “% Inhibition” value is reported as -8% and the Z score came out at 0.77.

As to `Cc1ccc(S(=O)(=O)n2cc(-c3cnn(S(=O)(=O)c4ccc(C)cc4)c3)cn2)cc1`, the “% Inhibition” value is listed as -11% and the Z score stood at 2.

Consider `COCC(=O)NC1CN(S(=O)(=O)c2ccc(C)o2)C1`, for which the “% Inhibition” value is on record as -5% and the Z score is listed as 0.54.

With `COc1cc(OC)cc(C(=O)N2CCn3nccc3C2)c1`, the “% Inhibition” value is -15% and the Z score stood at 1.73.

For the compound `CCC(C)Oc1cccc(NC(c2cccnc2)c2ncc[nH]2)c1` (stereo unspecified), the “% Inhibition” value came out at 20% and the Z score is given as -2.73.

Regarding `Cc1cc(N2CCC(COc3cc(C4CC4)ncn3)CC2)n2ncnc2n1`, the “% Inhibition” value was 5% and the Z score is recorded as -0.54.

Consider `O=C(c1cccc(N2CCCC2=O)c1)N(Cc1cccc(OCc2ccc3c(c2)OCO3)c1)Cc1ccccn1`, for which the “% Inhibition” value is -12% and the Z score was 1.64.

In the case of `CCCN1CCC[C@H](CCNC(=O)c2ccc(C#N)nc2)C1`, the “% Inhibition” value is recorded as 1% and the Z score was -0.13.

Take `CCOc1ncccc1C(=O)N(C)[C@H]1CCN(C(C)C)C1`: the “% Inhibition” value was found to be 4% and the Z score was -0.51.

With `CN1CCC(N(C)C(=O)NC2CCCN(Cc3c(F)cccc3F)C2)C1=O` (stereo unspecified), the “% Inhibition” value is listed as 14% and the Z score is -1.84.

Take `COc1cccc(-c2ccc(N3CCCN(C(=O)CN(CC4CC4)C(=O)c4ccccc4F)CC3)nn2)c1`: the “% Inhibition” value is -14% and the Z score is 1.84.

Turning to `O=C(c1cc(-c2ccc(F)cc2)n[nH]1)N1CCC(N2CCC[C@H](O)C2)CC1`, the “% Inhibition” value worked out at 0% and the Z score is recorded as -0.03.

As for `CC(C)[C@@H]1N(C(=O)c2cc3n(n2)CCN(C)S3(=O)=O)CC1(C)C`, the “% Inhibition” value was 0% and the Z score worked out at 0.06.

For `Cc1nc(NC(=O)c2ccc(Cl)c(-n3cnnn3)c2)sc1C`, the “% Inhibition” value is -1% and the Z score turned out to be 0.15.

For the compound `O=S(=O)(NCCc1nnc[nH]1)c1ccc(Cl)cc1`, the “% Inhibition” value is 34% and the Z score is -3.86.

Take `O=c1c2cncnc2ccn1Cc1noc2c1CCCC2`: the “% Inhibition” value is reported as -3% and the Z score turned out to be 0.3.

Consider `CC(C)Cc1ccc(C(=O)NCc2cc(=O)[nH]c(=O)[nH]2)s1`, for which the “% Inhibition” value is -4% and the Z score was 0.71.

For `Cc1cc(C(=O)N2CC[C@H](OC(F)F)C2)c(C)n1C1CC1`, the “% Inhibition” value is given as -5% and the Z score amounted to 0.64.

Consider `Cc1nc(CC(C)C)cc(C(=O)N[C@H]2CCN(Cc3cccnc3)C[C@@H]2O)n1`, for which the “% Inhibition” value is recorded as -10% and the Z score was 1.3.

Turning to `Cc1nn(C)cc1[C@H](C)Nc1ccc(C(=O)Nc2ccccc2)nn1`, the “% Inhibition” value was -9% and the Z score is 1.66.

Take `CC(C)COc1ccccc1-c1nc(N(C)C)ns1`: the “% Inhibition” value is reported as -1% and the Z score amounted to 0.18.

In the case of `CCOC(=O)C1CCN(c2nc(-c3cccc(Cl)c3)c3c(N)n(-c4cccc(F)c4)nc3n2)CC1`, the “% Inhibition” value was -3% and the Z score was 0.38.

As to `O=C(NCc1ccc(Cl)cc1)c1nn[nH]c1Nc1cccc(F)c1`, the “% Inhibition” value is -1% and the Z score is on record as 0.1.

Consider `O=C(NCC1CCCCCC1)c1ccc(-c2ccc(F)c(F)c2)s1`, for which the “% Inhibition” value is on record as -10% and the Z score was determined as 1.18.

Take `Cc1cccn2c(CN3CCC[C@H](CC(N)=O)C3)cnc12`: the “% Inhibition” value is -4% and the Z score is reported as 0.63.
